We go through 27 compounds from PubChem BioAssay AID212 (DTP/NCI, 2004).

The structures appear in SMILES notation. Results filed as inconclusive are left out. A number of entries come with more than one value. The other results are left out here. There may be further records. The values listed for one entry are repeated measurements (runs, samples, wells, individuals or studies). Additions like (4×) stand for listed records that agree.

This experiment concerns BDF1 mice, colon carcinoma 38 sc, T/C %. In words: NCI In Vivo Anticancer Drug Screen. Data for tumor model Colon Carcinoma 38 (subcutaneous) in B6D2F1 (BDF1) mice. The following applies: endpoint: median tumor weight (est.), higher = larger tumour. The procedure, abridged:
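Ratio of survival or tumor size, compound-treated animals relative to vehicle controls, in tumor-bearing mice.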

[1] abbreviates: dose: 25.0 mg/kg/injection, schedule: Q07DX002 (ip), vehicle: Klucel (hydroxypropylcellulose) (HPC).
Where [2] appears, read: dose: 100.0 mg/kg/injection, schedule: Q07DX002 (ip), vehicle: Klucel (hydroxypropylcellulose) (HPC).
Setting [3] is: dose: 400.0 mg/kg/injection, schedule: Q07DX002 (ip), vehicle: Klucel (hydroxypropylcellulose) (HPC).
Where [4] appears, read: dose: 50.0 mg/kg/injection, schedule: Q07DX002 (ip), vehicle: Klucel (hydroxypropylcellulose) (HPC).
Setting [5] is: dose: 200.0 mg/kg/injection, schedule: Q07DX002 (ip), vehicle: Klucel (hydroxypropylcellulose) (HPC).
Where [6] appears, read: dose: 100.0 mg/kg/injection, schedule: Q07DX002 (ip), vehicle: saline.
Setting [7] is: dose: 1.0 mg/kg/injection, schedule: Q07DX002 (ip), vehicle: saline.
[8] abbreviates: dose: 3.12 mg/kg/injection, schedule: Q07DX002 (ip), vehicle: saline.
Setting [9] is: dose: 12.5 mg/kg/injection, schedule: Q07DX002 (ip), vehicle: saline.
[10] abbreviates: dose: 200.0 mg/kg/injection, schedule: Q07DX002 (ip), vehicle: saline.
Setting [11] is: dose: 400.0 mg/kg/injection, schedule: Q07DX002 (ip), vehicle: saline.
Setting [12] is: dose: 100.0 mg/kg/injection, schedule: Q07DX002 (ip), vehicle: saline with Tween-80.
[13] abbreviates: dose: 12.5 mg/kg/injection, schedule: Q07DX002 (ip), vehicle: saline with Tween-80.
The mark [14] stands for this setting: dose: 200.0 mg/kg/injection, schedule: Q07DX002 (ip), vehicle: saline with Tween-80.
Where [15] appears, read: dose: 25.0 mg/kg/injection, schedule: Q07DX002 (ip), vehicle: saline.
[16] abbreviates: dose: 25.0 mg/kg/injection, schedule: Q07DX002 (ip), vehicle: saline with Tween-80.

For the compound `N#CCCN(C(=S)Nc1cccc(C(F)(F)F)c1)C1CCCCC1`, the T/C by setting is: under setting [1], 54 % of control and 88 % of control; under setting [2], 69 % of control, 77 % of control, 114 % of control; under setting [3], 36 % of control, 64 % of control, 68 % of control.
For the compound `Cc1cn(C2CC(O)C(CO)O2)c(=O)[nH]c1=O` (configuration not stated), the T/C was 20 % of control and 85 % of control (dose: 12.5 mg/kg/injection, schedule: Q07DX003 (ip), vehicle: saline); 115 % of control and 150 % of control (dose: 100.0 mg/kg/injection, schedule: Q07DX003 (ip), vehicle: saline).
`Nc1ncnc2c1nnn2C1OC(CO)C(O)C1O` (configuration not stated): the T/C runs as follows: (dose: 12.5 mg/kg/injection, schedule: Q07DX002 (ip), vehicle: Klucel (hydroxypropylcellulose) (HPC)) 71 % of control and 162 % of control; under setting [1], 85 % of control and 114 % of control; under setting [4], 65 % of control and 268 % of control; under setting [2], 50 % of control and 221 % of control; under setting [5], 54 % of control and 171 % of control.
For the compound `COC(=O)[C@@H]1c2cc3c(c(O)c2[C@@H](OC)C[C@@]1(C)O)C(=O)c1c(O)cc2c(c1C3=O)OC1O[C@@]2(C)[C@H](O)[C@@H](N(C)C)[C@@H]1O`, the T/C (dose: 50.0 mg/kg/injection, schedule: Q07DX002 (ip), vehicle: saline) is 58 % of control and 104 % of control; the T/C under setting [6] is 18 % of control and 90 % of control.
On to `O=C1C(NCCO)=C(N2CC2)C(=O)C(NCCO)=C1N1CC1`, for which the T/C was 39 % of control and 116 % of control (dose: 0.5 mg/kg/injection, schedule: Q07DX002 (ip), vehicle: saline); 18 % of control and 72 % of control under setting [7].
As for `C1CCC2OCCOCCOC3CCCCC3OCCOCCOC2C1` (configuration not stated), the T/C under setting [1] was 94 % of control and 162 % of control.
Turning to `N[C@@H](Cc1ccc(N(CCCl)CCCl)cc1)C(=O)O`, the T/C reads like this: under setting [7], 51 % of control and 83 % of control; (dose: 1.88 mg/kg/injection, schedule: Q07DX002 (ip), vehicle: Klucel (hydroxypropylcellulose) (HPC)) 66 % of control and 110 % of control; (dose: 2.0 mg/kg/injection, schedule: Q07DX002 (ip), vehicle: saline) 58 % of control, 82 % of control, 153 % of control; (dose: 2.5 mg/kg/injection, schedule: Q07DX002 (ip), vehicle: suspension in saline) 63 % of control, 71 % of control, 150 % of control; (dose: 4.0 mg/kg/injection, schedule: Q07DX002 (ip), vehicle: saline) 40 % of control, 65 % of control, 76 % of control; (dose: 5.0 mg/kg/injection, schedule: Q07DX002 (ip), vehicle: suspension in saline) 53 % of control, 69 % of control, 82 % of control. The T/C is 23 % of control, 47 % of control, 59 % of control (dose: 8.0 mg/kg/injection, schedule: Q07DX002 (ip), vehicle: saline) and 19 % of control, 37 % of control, 51 % of control (dose: 10.0 mg/kg/injection, schedule: Q07DX002 (ip), vehicle: suspension in saline).
In the case of `C=Cc1cnc([N+](=O)[O-])n1C`, the T/C reads like this: under setting [2], 67 % of control, 71 % of control, 109 % of control; under setting [5], 34 % of control, 76 % of control, 108 % of control.
Consider `c1ccc2c(NCCCCCCNc3c4ccccc4nc4ccccc34)c3ccccc3nc2c1`, for which the T/C (dose: 10.0 mg/kg/injection, schedule: Q07DX002 (ip), vehicle: Klucel (hydroxypropylcellulose) (HPC)) was 88 % of control and 114 % of control.
On to `C[CH2][Sn]([CH2]C)([O]S(C)(=O)=O)[O]S(C)(=O)=O`, for which the T/C reads like this: under setting [8], 14 % of control and 94 % of control; under setting [9], 47 % of control, 79 % of control, 98 % of control.
For the compound `O=C1OC(C(O)CO)C(O)=C1O` (configuration not stated), the T/C was 65 % of control and 164 % of control under setting [10]; 90 % of control and 155 % of control under setting [11].
Regarding `C/C=C/c1cc2c(c(=O)o1)C(=O)[C@@H](O)[C@H](C)O2`, under setting [12], the T/C is 59 % of control and 92 % of control.
Turning to `O=CN(SSN(C=O)C1CCCCC1)C1CCCCC1`, the T/C is, setting by setting: under setting [13], 75 % of control and 169 % of control; under setting [12], 77 % of control and 106 % of control; (dose: 400.0 mg/kg/injection, schedule: Q07DX002 (ip), vehicle: saline with Tween-80) 60 % of control and 171 % of control.
Consider `COc1cc(C(=O)c2cc3c(cc2C)OCO3)cc(OC)c1OC`, for which, under setting [2], the T/C is 65 % of control and 98 % of control.
Regarding `CC1(C)OC2C(COC(=O)c3ccc([N+](=O)[O-])cc3)OC(NC(=O)N(CCCl)N=O)C2O1` (configuration not stated), the T/C under setting [14] is 31 % of control and 89 % of control.
For `CN(C)C(=O)c1cccc(COc2ccc(N3C(N)=NC(N)=NC3(C)C)cc2Cl)c1`, the T/C was 83 % of control and 152 % of control (dose: 8.0 mg/kg/injection, schedule: Q07DX003 (ip), vehicle: saline); 54 % of control and 162 % of control (dose: 16.0 mg/kg/injection, schedule: Q07DX003 (ip), vehicle: saline).
As for `C=C[Si]12OCCN(CCO1)CCO2`, the T/C is 82 % of control and 113 % of control under setting [4]; 95 % of control and 167 % of control under setting [3].
Turning to `COC1OC(CO)C(O)C(NC(=O)N(C)N=O)C1O` (configuration not stated), the T/C was 68 % of control and 113 % of control under setting [15]; 64 % of control (2×) and 111 % of control under setting [6]; 22 % of control, 75 % of control, 81 % of control under setting [10]; 18 % of control, 37 % of control, 45 % of control under setting [11].
Regarding `CONc1ccn(C2OC(CO)C(O)C2O)c(=O)n1` (configuration not stated), the T/C under setting [15] was 72 % of control and 106 % of control.
For `CN1N=C(N)c2cn(C3OC(COP(=O)(O)O)C(O)C3O)c3ncnc1c23` (configuration not stated), the T/C (dose: 12.5 mg/kg/injection, schedule: Q07DX002 (ip), vehicle: water) was 39 % of control and 81 % of control; the T/C (dose: 50.0 mg/kg/injection, schedule: Q07DX002 (ip), vehicle: water) was 44 % of control and 75 % of control.
As to `Nc1ccccc1N`, the T/C under setting [2] was 74 % of control and 104 % of control; the T/C under setting [5] was 50 % of control and 93 % of control.
As for `C[Si](C)(C)O/C=C1\CCCCC1=O`, the T/C is 65 % of control and 111 % of control under setting [13]; 79 % of control and 121 % of control under setting [16]; 78 % of control and 108 % of control under setting [14].
In the case of `O=C(Nc1nncs1)c1ccncc1`, the T/C under setting [16] is 92 % of control and 123 % of control.
With `ClCCCN1CCCCC1CCl` (configuration not stated), the T/C is 46 % of control, 61 % of control, 160 % of control (dose: 1.56 mg/kg/injection, schedule: Q07DX002 (ip), vehicle: saline); 45 % of control, 73 % of control, 88 % of control under setting [8]; 49 % of control, 86 % of control, 122 % of control (dose: 6.25 mg/kg/injection, schedule: Q07DX002 (ip), vehicle: saline); 37 % of control, 57 % of control, 110 % of control under setting [9]; 53 % of control, 79 % of control, 110 % of control under setting [15].
With `O=C(CCBr)N1CCN(C(=O)CCBr)CC1`, the T/C runs as follows: (dose: 160.0 mg/kg/injection, schedule: Q07DX002 (ip), vehicle: saline with Tween-80) 58 % of control and 93 % of control; (dose: 320.0 mg/kg/injection, schedule: Q07DX002 (ip), vehicle: saline with Tween-80) 56 % of control and 121 % of control.
On to `O=C1CCC(=O)N1CO`, for which the T/C (dose: 800.0 mg/kg/injection, schedule: Q07DX002 (ip), vehicle: saline) is 72 % of control and 104 % of control.
Take `Nc1nc(F)nc2c1ncn2C1OC(COP(=O)(O)O)C(O)C1O` (configuration not stated): the T/C under setting [15] was 60 % of control and 103 % of control.
